The record followed here is paper doi:10.1101/2025.11.26.690757 (bioRxiv, 2025).

In the test the target is dominant-negative Gαi1 (G203A, A326S) (human, UniProt P63096, G203A | A326S). The test is described as follows: cryo-EM structure.

B1: human GPR17, active-conformation construct KC165 (wild type, full length 1-367) (receptor)
chain: MSKRSWWAGSRKPPREMLKLSGSDSSQSMNGLEVAPPGLITNFSLATAEQCGQETPLENMLFASFYLLDFILALVGNTLALWLFIRDHKSGTPANVFLMHLAVADLSCVLVLPTRLVYHFSGNHWPFGEIACRLTGFLFYLNMYASIYFLTCISADRFLAIVHPVKSLKLRRPLYAHLACAFLWVVVAVAMAPLLVSPQTVQTNHTVVCLQLYREKASHHALVSLAVAFTFPFITTVTCYLLIIRSLRQGLRVEKRLKTKAVRMIAIVLAIFLVCFVPYHVNRSVYVLHYRSHGASCATQRILALANRITSCLTSLNGALDPIMYFFVAEKFRHALCNLLCGKRLKGPPPSFEGKTNESSLSAKSEL
As to B1, the binding result is on record as “binds”.
